Laboratory results from PubChem BioAssay AID1159614 (National Center for Advancing Translational Sciences (NCATS), 2016).
Out of some 45,000 compounds screened, about 65 (0.1%) were called active. The call rests on the fitted dose curve; in most records, active means well fitted activation curve with a large enough effect; inconclusive means small, poorly fitted or top-dose-only effect; inactive means no such curve, though single readings can be large or run the other way. The list shows a part of the results.

target: Galactocerebrosidase (Homo sapiens) (UniProt P54803); test: A Novel Cell-Based Assay to Identify Small Molecules for B -Galactocerebrosidase; conditions: 145M-Twi-hGALC-G270D cells (Twitcher mouse brain line with human GALC G270D), HMU-beta-Gal fluorescence, 48 h; series mostly up to 57.5 µM; activation: at the top concentration; further: 0% is about no effect; nearly all actives have a fitted effect of over 65% in size
UniProt P54803, sequence (P54803 whole entry, looked up): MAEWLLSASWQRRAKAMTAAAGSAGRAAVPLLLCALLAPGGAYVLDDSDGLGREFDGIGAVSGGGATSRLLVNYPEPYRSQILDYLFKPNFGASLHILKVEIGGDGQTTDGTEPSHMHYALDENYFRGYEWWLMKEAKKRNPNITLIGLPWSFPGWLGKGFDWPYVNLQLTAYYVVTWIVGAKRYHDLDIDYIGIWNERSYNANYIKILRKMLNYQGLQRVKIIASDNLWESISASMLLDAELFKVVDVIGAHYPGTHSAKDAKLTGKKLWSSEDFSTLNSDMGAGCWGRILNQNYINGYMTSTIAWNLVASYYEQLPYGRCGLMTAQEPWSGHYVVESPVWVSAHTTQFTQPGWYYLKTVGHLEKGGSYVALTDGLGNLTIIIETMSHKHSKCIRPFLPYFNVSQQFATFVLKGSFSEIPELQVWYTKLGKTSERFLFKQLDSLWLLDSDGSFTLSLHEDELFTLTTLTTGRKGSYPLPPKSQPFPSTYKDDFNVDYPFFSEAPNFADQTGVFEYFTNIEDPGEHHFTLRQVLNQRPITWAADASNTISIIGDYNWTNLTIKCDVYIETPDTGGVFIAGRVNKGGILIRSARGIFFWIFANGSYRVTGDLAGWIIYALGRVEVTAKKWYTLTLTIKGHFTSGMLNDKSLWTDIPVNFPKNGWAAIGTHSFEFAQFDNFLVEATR
How it was run: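 Mutant human GALC (G270D), stably expressed in a Twitcher mouse brain cell line lacking endogenous GALC, is measured in live-treated cells via 6-hexadecanoylamino-4-methylumbelliferyl-β-galactoside hydrolysis (0.1 mM final, pH 5.2) with fluorescent detection.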

activation, inactive:
COc1ccc(-c2cc(C(F)(F)F)nc(SCC(=O)NCc3ccc(Cl)cc3)n2)cc1 -29.7%, CC(C)OCc1cc(CN2CCN(c3ccccc3)CC2)c(O)c2ncccc12 -16.3%, Cc1cccc2c1-c1sc(C(=O)N3CCN(c4cccc(Cl)c4)CC3)cc1CO2 -7.67%, CCOc1ccc(CCNC(=O)c2cnc3sc(N4CCCCCC4)nn3c2=O)cc1 8.66%, Cc1ccc(C)c(C(=O)COC(=O)CCCC(=O)Nc2cc(C(F)(F)F)ccc2Cl)c1 -8.46%, Cc1cccc(CC(=O)NCCc2csc(-c3ccc(C(F)(F)F)cc3)n2)c1 0.234%, CC1=C(C(=O)Nc2ccc(F)cc2F)C2(CCCCCC2)OC1=O 3.87%, CCOC(=O)c1ccc(N2C(=O)c3n[nH]c(-c4ccco4)c3C2c2ccc(F)cc2)cc1 (stereo unspecified) -11.7%, COc1ccccc1CNC(=O)C(CC(C)C)N1Cc2ccccc2C1=O (stereo unspecified) -10.6%, O=C(CSc1nccn1Cc1ccc(Cl)cc1)NCc1ccccc1 -5.07%, O=C(CN1C(=O)C2(SCC(=O)N2c2ccc(F)c(F)c2)c2ccccc21)Nc1ccccc1F (stereo unspecified) -22.4%, COc1cc(C2C(C(=O)Nc3ccccc3)=C(C)Nc3nc(SCc4ccccc4F)nn32)cc(OC)c1OC (stereo unspecified) 14.2%, CCOC(=O)c1c(S(=O)(=O)N2CCC(C(=O)N3CCN(c4cc(C)ccc4C)CC3)CC2)c(C)n(C)c1C -25.6%, Cc1sc2c(c1C)c(=O)n(-c1ccc(Cl)cc1)c(=O)n2Cc1c(F)cccc1Cl -2.31%, CCOc1ccccc1CNS(=O)(=O)c1csc(C(N)=O)c1 -15.7%, Cc1ccc(-c2cc(C(=O)N3CCN(c4ccccc4)CC3)c3ccccc3n2)cc1C -21.1%, CC1CCN(S(=O)(=O)c2cc(C(=O)Nc3ccc(Br)cc3F)n(C)c2)CC1 3.29%, COC(=O)c1cc(NC(=O)CCc2c(C)nc3cc(-c4ccccc4)nn3c2C)cc(C(=O)OC)c1 -8.8%, CCOc1cc2c(cc1OCC)C(c1c(F)cccc1Cl)CC(=O)N2 (stereo unspecified) -11.9%, COc1ccc(C)cc1NC(=O)Cn1cc(S(=O)(=O)Cc2ccccc2Cl)c2ccccc21 -7.4%, CCc1ccccc1NC(=O)c1nc(-c2ccncc2)no1 -14.1%, Cc1cccc(NC(=O)Cn2c(C(F)(F)F)nc3ccccc32)c1C 5.17%, CC(C)CCNC(=O)c1ccc2c(c1)N(Cc1ccccc1F)C(=O)c1ccccc1S2=O (stereo unspecified) -8.82%, COc1ccccc1OCC(=O)NCC1(N(C)C)CCCCC1 -8.95%, Cc1ccc(N2CC(NC(=O)C(=O)c3c[nH]c4ccccc34)CC2=O)cc1 (stereo unspecified) -5.01%, O=C(NC1CCCCC1)c1ccc(CSc2nc3cccnc3n2Cc2ccccc2F)cc1 -8.58%, O=C(Cn1ncc2c(Cl)cccc21)NCc1cccc(Br)c1 -8.77%, Cc1ccc(Cn2c(CCCNC(=O)C3CCCCC3)nc3ccccc32)cc1 -11.3%, N#C/C(=C\c1c(Oc2ccc(Br)cc2)nc2ccccn2c1=O)c1nc2ccccc2s1 3.41%, COC(=O)c1cccc(NC(=O)Nc2cc(C(=O)NCc3cccc(F)c3)ccc2N2CCCC2)c1 -26.8%, O=C(CSc1nc(=O)n(Cc2cccnc2)c2c1CCC2)Nc1ccc(F)cc1F -16%, Cc1ccc(Cc2nc3ccccc3nc2SCC(=O)N2CCCCC2C)cc1 (stereo unspecified) 2.88%, Oc1ccc(NCc2ccc(OCc3ccccc3Cl)cc2)cc1 -18.8%, CN(C)c1ccc(CNC(=O)CCCn2ccc3cc(S(=O)(=O)N4CCCC4)ccc32)cc1 -1.57%, COc1ccccc1N1CCN(C(=O)c2cn(C)c3ccc(S(=O)(=O)N4CCOCC4)cc3c2=O)CC1 -5.15%, Cc1nn(C(C)C(=O)NC2CCC(C)CC2)c(=O)c2cc3sccc3n12 (stereo unspecified) -19.1%, COc1ccc(CCN2CCC(CNC(=O)c3cnn(-c4ccccc4)c3C3CCN(C(=O)OC(C)(C)C)CC3)CC2)cc1 -5.92%, COc1cccc(N2CCN(S(=O)(=O)c3ccc4c(c3)CCCN4C(C)=O)CC2)c1 -10.9%, CCOC(=O)c1c(NC(=O)c2cc(=O)c3ccc(C)cc3o2)sc(C)c1C 4.48%, COc1ccc(Cl)cc1NC(=O)c1cc(C)nn1-c1ccccc1 -14.1%, COc1ccc(N2CCN(C(=O)CS(=O)(=O)c3cccc4nsnc34)CC2)cc1 -16.7%, CC(=O)N1CCc2cc(Br)cc(S(=O)(=O)N3CCN(c4cccc(C)c4)C(C)C3)c21 (stereo unspecified) -12.8%, O=C(NCCc1csc(-c2cccnc2)n1)c1ccc(F)c(F)c1 -15.1%, CCCCN1CCc2nc(N3CCN(C)CC3)ncc2C1 -15.2%, O=S(=O)(c1ccc(Cl)cc1)c1nnn2c1nc(N1CCCCC1)c1sccc12 -0.256%, CCOc1ccc(C2C(C(=O)Nc3ccc(Cl)cc3)=C(C)Nc3nc(C(F)(F)F)nn32)cc1 (stereo unspecified) -17.7%, COc1ccc(OC)c(S(=O)(=O)N2CC=C(c3c(C)n(CC(=O)N4CCCC4)c4ccccc34)CC2)c1 -7.52%, COc1ccc(-c2nc3sc(CCNC(=O)c4ccccc4C)c(C)n3n2)cc1 -1.45%, Cc1cn(C)c(CC(=O)N2CCN(c3ccccc3F)CC2)c1C(=O)O -4.88%, CC(CNC(=O)CCS(=O)(=O)c1ccc2c(c1)oc(=O)n2C)c1ccccc1 (stereo unspecified) -21.3%, Cc1ccc2c(c1)-c1c(c(C(=O)N3CCN(c4cc(Cl)ccc4C)CC3)nn1C)CS2 -11.7%, Cc1cccc(NC(=O)N2CCC(CN3CCOCC3)CC2)c1C 1.44%, Fc1ccccc1-n1ncc2c1ncn1nc(Cc3ccccc3)nc21 -3.97%, Cc1ccccc1NC(=O)CN(c1ccc(Cl)cc1Cl)S(=O)(=O)c1ccccc1 -6.89%, CCCCN(C)CCNC(=O)c1ccc2c(c1)NC(=O)CN2 -13.9%, Cc1cccc(C(=O)Nc2nc(-c3nnn(-c4cc(F)ccc4F)c3C)ns2)c1 -4.46%, Cc1cccn2c(=O)c3cc(C(=O)N(Cc4ccccc4)C(C)C)sc3nc12 -10.4%, Cc1c(C(=O)NCCc2ccc(S(N)(=O)=O)cc2)sc2nc3n(c(=O)c12)CCCC3 -14.5%, O=S(=O)(NCc1ccccc1Cl)c1ccc(N2CCCCS2(=O)=O)cc1 -1.82%, COc1ccc(-c2ccc3cc(C(=O)O)ccc3c2)cc1C12CC3CC(CC(C3)C1)C2 -16.4%, CCc1ccccc1NC(=O)CSc1nc2c(oc3ccccc32)c(=O)n1-c1ccccc1F -11.2%, Cc1ccc(NC(=O)C(=O)NCC(c2cccnc2)N2CCN(Cc3ccccc3)CC2)cc1 (stereo unspecified) -14.4%, CC(=O)Nc1ccc(-c2nnc(SCC(=O)c3ccc([N+](=O)[O-])cc3)o2)cc1 -8.5%, Cc1ccc2ccc3cc(C(=O)N4CCN(c5ccccc5)CC4)nc3c2[nH]1 -27.1%, Cc1cc(Cl)ccc1NC(=O)C1CCN(c2nnc(-n3c(C)ccc3C)s2)CC1 -13.4%, CCOC(=O)c1ccccc1NC(=O)N1CCOc2ccc(Cl)cc21 9.25%, COc1ccc(-c2cc(C(F)(F)F)n3nc(C(=O)NCC45CC6CC(CC(C6)C4)C5)cc3n2)cc1OC -0.768%, Cc1cccc(Cn2c(C)c(CNC3CCCCC3)c(C(=O)O)c2C)c1 -2.91%, CC1CCN(S(=O)(=O)c2ccc3c(c2)N(CC(=O)O)C(=O)CO3)CC1 -9.83%, CC1CCN(c2csc3ccc(F)cc3c2=O)CC1 -13.8%, CN(CCCNC(=O)Cn1ncc2c([nH]c3ccccc32)c1=O)Cc1ccccc1 3.99%, Cc1ccccc1CNC(=O)C(=O)NCC(c1ccc2c(c1)OCO2)N1CCOCC1 (stereo unspecified) -8.89%, Cc1ccccc1S(=O)(=O)Cc1ccc(C(=O)NCCc2ccccc2)o1 -4.86%, Cc1ccc2c(c1)-c1c(cnn1CC(=O)N1CCN(c3cc(C)ccc3C)CC1)CO2 -9.27%, COCCc1nn2c(=O)cc(COC(=O)c3ccco3)nc2s1 -12.5%, CC(C)N1CCc2c(sc(NC(=O)c3ccc(S(=O)(=O)N(C)C4CCCCC4)cc3)c2C(N)=O)C1 -29.5%, O=C(NCc1ccc(Cl)cc1)c1ccc(CNS(=O)(=O)c2ccc(F)cc2)cc1 -15.8%, CC(C)(C)c1ccc(C(=O)Nc2ccc(OCc3cc(=O)n4ccsc4n3)cc2)cc1 -12.4%, COc1ccc(CCNC(=O)c2ccc(Cn3c(=O)c4ccccc4n(Cc4ccc(F)cc4Cl)c3=O)cc2)cc1OC -12.6%, Cc1cc(N2CCN(c3ccccc3)CC2)n2cnnc2n1 -1.43%, CCC(Sc1nc2cc(OC)c(OC)cc2c(=O)n1Cc1ccc(OC)cc1)C(=O)NCCOC (stereo unspecified) -2.41%, CC(=O)c1ccc(NC(=O)c2cc(S(=O)(=O)N3CCOCC3)ccc2C)cc1 -8.98%, CC(C)Cc1nn2c(=O)cc(COC(=O)c3cccc(NS(C)(=O)=O)c3)nc2s1 -19.3%, Cc1nc(N2CCOCC2)c2c(C(=O)N(C)c3ccccc3)c(C)oc2n1 -18.3%, COc1ccccc1CNC(=O)C1CCN(C2=NS(=O)(=O)C(c3ccc(C)c(C)c3)=C2C)CC1 11.4%, Cc1cc(C)cc(OCC(=O)N(Cc2ccc(Cl)cc2)C2CCS(=O)(=O)C2)c1 (stereo unspecified) -35.6%, Cc1nc(-c2ccc(F)cc2)sc1CCNC(=O)c1ccc(OC(C)C)cc1 -4.03%, CCCN1CCN(CCCNC(=O)c2ccc3c(c2)sc2nc(-c4ccc(OCC)cc4)cn23)CC1 -8.4%, CCOc1ccc(-c2cn3c(n2)sc2cc(C(=O)N4CCCC(C)C4)ccc23)cc1 (stereo unspecified) -5.27%, CCN1CCN(C(=O)c2ccc3c(c2)N(Cc2ccccc2)C(=O)c2ccccc2S3(=O)=O)CC1 8.17%, COc1ccc(CNC(=O)CCCN2C(=O)CCn3nc(-c4cn(C)c5ccccc45)cc32)cc1 16.4%, O=C(NCCC1=CCCCC1)C1CCN(C(=O)N2CCOc3ccccc32)CC1 -11.1%, COc1ccc(OC)c(NC(=O)Cn2ncc3c2-c2ccccc2OC3)c1 29.3%, Cc1ccc(-n2c(=O)c3cccnc3n2CC(=O)Nc2ccc(C)cc2Cl)cc1 -8.36%, O=C(NCCc1ccc(Cl)cc1)C1(c2cccs2)CCOCC1 -3.74%, Cc1c(Cl)cccc1NC(=O)CSc1nc(=O)[nH]c2c1CCCC2 -7.17%
